Experimental data from the supplement of paper PMC4967469.

Columns and labels:
Experiment in all cases: Viability of human cancer cell lines after 72 h of drug (GDSC screen)
CP466722 = compound: COc1cc2ncnc(-n3nc(-c4ccccn4)nc3N)c2cc1OC [CP466722]; details: top dose 16 µM; top dose inferred
Experimental: (§1)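 Human cancer cell lines in 384-well plates, medium with 10% serum, drug for 72 h over a 256-fold dose range (nine 2-fold or five 4-fold steps up to the top dose). Adherent lines were fixed and stained with the nucleic acid dye Syto60, suspension lines read with resazurin; signal relative to control wells, capped at 0 and 100%. One two-parameter sigmoid per drug and line, fitted in a mixed model over all curves with the slope shared within a line.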

QL-X-138 = compound: C=CC(=O)Nc1cc(-n2c(=O)ccc3cnc4ccc(-c5cn[nH]c5)cc4c32)ccc1C [QL-X-138]; details: top dose 10.24 µM; top dose inferred
Experimental: as §1

KU-55933 = compound: O=c1cc(-c2cccc3c2Sc2ccccc2S3)oc(N2CCOCC2)c1 [KU-55933]; details: top dose 10 µM
Experimental: as §1

ABT-888 = compound: C[C@]1(c2nc3c(C(N)=O)cccc3[nH]2)CCCN1 [ABT-888]; details: top dose 5 µM; top dose inferred
Experimental: as §1

GSK269962A = compound: CCn1c(-c2nonc2N)nc2cnc(Oc3cccc(NC(=O)c4ccc(OCCN5CCOCC5)cc4)c3)cc21 [GSK269962A]; details: top dose inferred
Experimental: as §1

Cytarabine = compound: Nc1ccn([C@@H]2O[C@H](CO)[C@@H](O)[C@@H]2O)c(=O)n1 [Cytarabine]; details: top dose 2 µM
Experimental: as §1

CHIR-99021 = compound: Cc1cnc(-c2cnc(NCCNc3ccc(C#N)cn3)nc2-c2ccc(Cl)cc2Cl)[nH]1 [CHIR-99021]
Experimental: as §1

ABT-869 = compound: Cc1ccc(F)c(NC(=O)Nc2ccc(-c3cccc4[nH]nc(N)c34)cc2)c1 [ABT-869]; details: top dose 1.024 µM; top dose inferred
Experimental: as §1

(5Z)-7-Oxozeaenol = compound: COc1cc(O)c2c(c1)/C=C/C[C@H](O)[C@H](O)C(=O)/C=C\C[C@H](C)OC2=O [(5Z)-7-Oxozeaenol]; details: top dose 10 µM; top dose inferred
Experimental: as §1

MPS-1-IN-1 = compound: COc1cc(N2CCC(O)CC2)ccc1Nc1cc(Nc2ccccc2S(=O)(=O)C(C)C)c2cc[nH]c2n1 [MPS-1-IN-1]; details: top dose 20 µM; top dose inferred
Experimental: as §1

Zibotentan = compound: COc1nc(C)cnc1NS(=O)(=O)c1cccnc1-c1ccc(-c2nnco2)cc1 [Zibotentan]; details: top dose 20 µM; top dose inferred
Experimental: as §1

[1] = top dose 5 µM, screen: GDSC drug entry 1192
[2] = top dose 2.56 µM, screen: GDSC drug entry 154
[3] = top dose 10 µM, screen: GDSC drug entry 1241, top dose inferred
[4] = top dose 2.5 µM, screen: GDSC drug entry 127

Row | Cell Line | AUC (CP466722) | IC50 (CP466722) | AUC (QL-X-138) | IC50 (QL-X-138) | AUC (KU-55933) | IC50 (KU-55933) | AUC (ABT-888) | IC50 (ABT-888) | AUC (GSK269962A; [1]) | IC50 (GSK269962A; [1]) | AUC (Cytarabine) | IC50 (Cytarabine) | AUC (CHIR-99021; [2]) | IC50 (CHIR-99021; [2]) | AUC (CHIR-99021; [3]) | IC50 (CHIR-99021; [3]) | AUC (ABT-869) | IC50 (ABT-869) | AUC ((5Z)-7-Oxozeaenol) | IC50 ((5Z)-7-Oxozeaenol) | AUC (MPS-1-IN-1) | IC50 (MPS-1-IN-1) | AUC (Zibotentan) | IC50 (Zibotentan) | AUC (GSK269962A; [4]) | IC50 (GSK269962A; [4])
1 | H513 (mesothelioma, semi-adherent) | 0.939 | > 16 µM | 0.896 | > 10.2 µM | 0.965 | > 10 µM | 0.986 | > 5 µM | 0.984 | > 5 µM | 0.86 | > 2 µM | 0.984 | > 2.56 µM | 0.933 | > 10 µM | 0.974 | > 1.02 µM | 0.73 | 3.3 µM | 0.986 | > 20 µM | 0.985 | > 20 µM |  | 
2 | HCC1143 (breast, adherent) | 0.768 | 8.44 µM | 0.749 | 4.54 µM | 0.941 | > 10 µM | 0.98 | > 5 µM | 0.969 | > 5 µM | 0.828 | 1.98 µM | 0.913 | > 2.56 µM | 0.977 | > 10 µM | 0.977 | > 1.02 µM | 0.737 | 3.98 µM | 0.817 | 17.4 µM | 0.973 | > 20 µM |  | 
3 | Hey (ovary, adherent) | 0.813 | 8.01 µM | 0.595 | 1.15 µM | 0.978 | > 10 µM | 0.974 | > 5 µM | 0.873 | 4.33 µM | 0.429 | 0.0808 µM |  |  | 0.901 | > 10 µM | 0.985 | > 1.02 µM | 0.462 | 0.495 µM | 0.857 | 14.8 µM | 0.987 | > 20 µM |  | 
4 | Hs746T (stomach, adherent) | 0.907 | > 16 µM | 0.519 | 0.734 µM | 0.95 | > 10 µM | 0.977 | > 5 µM | 0.934 | > 5 µM | 0.817 | 1.66 µM | 0.981 | > 2.56 µM | 0.952 | > 10 µM | 0.98 | > 1.02 µM | 0.663 | 2.09 µM | 0.981 | > 20 µM | 0.963 | > 20 µM |  | 
5 | HuO-3N1 (osteosarcoma, adherent) | 0.903 | > 16 µM | 0.791 | 6.32 µM | 0.929 | > 10 µM | 0.981 | > 5 µM | 0.938 | > 5 µM | 0.82 | 1.65 µM | 0.979 | > 2.56 µM | 0.882 | > 10 µM | 0.91 | > 1.02 µM | 0.833 | 9.55 µM | 0.965 | > 20 µM | 0.982 | > 20 µM |  | 
6 | JHOS-3 (ovary, adherent) | 0.891 | > 16 µM | 0.751 | 4.22 µM | 0.977 | > 10 µM | 0.984 | > 5 µM | 0.898 | > 5 µM | 0.823 | 1.64 µM |  |  | 0.908 | > 10 µM | 0.977 | > 1.02 µM | 0.753 | 4.18 µM | 0.939 | > 20 µM | 0.973 | > 20 µM |  | 
7 | KMS-11 (myeloma, suspension) | 0.867 | 11 µM | 0.801 | 4.18 µM | 0.972 | > 10 µM | 0.988 | > 5 µM | 0.886 | 4.11 µM | 0.939 | > 2 µM |  |  | 0.895 | 9.03 µM | 0.991 | > 1.02 µM | 0.629 | 1.34 µM | 0.785 | 7.27 µM | 0.99 | > 20 µM |  | 
8 | KP-2 (pancreas, adherent) | 0.895 | > 16 µM | 0.667 | 1.95 µM | 0.882 | > 10 µM | 0.98 | > 5 µM | 0.964 | > 5 µM | 0.923 | > 2 µM | 0.985 | > 2.56 µM | 0.97 | > 10 µM | 0.943 | > 1.02 µM | 0.533 | 0.776 µM | 0.92 | > 20 µM | 0.985 | > 20 µM |  | 
9 | KYAE-1 (oesophagus, suspension) | 0.577 | 1.67 µM | 0.323 | 0.194 µM | 0.907 | > 10 µM | 0.978 | > 5 µM | 0.944 | > 5 µM | 0.979 | > 2 µM |  |  | 0.944 | > 10 µM | 0.956 | > 1.02 µM | 0.838 | 7.85 µM | 0.877 | > 20 µM | 0.983 | > 20 µM |  | 
10 | MOG-G-CCM (glioma, adherent) | 0.94 | > 16 µM | 0.531 | 0.79 µM | 0.962 | > 10 µM | 0.974 | > 5 µM | 0.759 | 2.03 µM | 0.615 | 0.274 µM | 0.975 | > 2.56 µM | 0.868 | > 10 µM | 0.959 | > 1.02 µM | 0.744 | 3.57 µM | 0.919 | > 20 µM | 0.979 | > 20 µM |  | 
11 | MOLT-13 (T-cell lymphoblastic leukaemia, suspension) | 0.61 | 1.92 µM | 0.514 | 0.694 µM | 0.938 | > 10 µM | 0.947 | > 5 µM | 0.479 | 0.277 µM | 0.981 | > 2 µM |  |  | 0.933 | > 10 µM | 0.989 | > 1.02 µM | 0.412 | 0.371 µM | 0.866 | 14.3 µM | 0.988 | > 20 µM | 0.898 | 2.48 µM

The IC50 comes from the fitted curve, where viability falls to half of the control; fits outside the tested doses are given as limits. AUC is the area under the same curve over the 256-fold range up to the top dose, as a fraction: 1 means no effect, lower means more sensitive. For some of these results: An inferred top dose comes from the curve model; the source does not state it. For some of these results: Where an entry number is given, a second screen of the drug exists; the two often differ.
